Reference: PubChem BioAssay (Tox21)
Values joined by “and” are separate entries in the source; they are usually repeats but may differ in a detail not shown here. Identical values can stand only once. The shares of active, inactive and inconclusive entries below differ from those in the screen. Potencies beside an inconclusive call are fits to weak or partial responses and may not hold up. Active and inactive are the calls of the source. Unless noted, calls come from the whole dose curve.

Experiments:
[1] = target: Estrogen receptor beta (Homo sapiens) (UniProt Q92731); assay: qHTS assay to identify small molecule agonists of the estrogen receptor beta (ER-beta) signaling pathway (AID 1259377; active = well fitted activation curve with a large enough effect in the signal ratio in the repeat runs, not every such curve was filed as active; inconclusive = weak or mixed curves, or effect the other way; the % refers to the signal ratio; for activation: % is set by controls: 0 for no effect and ±100 for the full control effect); conditions: ER-beta-UAS-bla HEK293T, beta-lactamase FRET ratio, 16 h; activation: at 92.4 µM (top of the series) unless noted
In short: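 Ratiometric beta-lactamase FRET read-out came after 2 h substrate loading at room temperature. It followed 16 h compound treatment at 37C of GripTite HEK293T cells carrying a UAS-bla reporter, plated in 2% charcoal-stripped FBS medium.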

[2] = target: Estrogen receptor beta (Homo sapiens) (UniProt Q92731); assay: qHTS assay to identify small molecule antagonists of the estrogen receptor beta (ER-beta) signaling pathway (AID 1259378; active = well fitted inhibition curve with a large enough effect in the signal ratio in the repeat runs, not every such curve was filed as active; inconclusive = weak or mixed curves, or effect the other way; inactive = no such curve, though single readings can be large or run the other way; the % refers to the signal ratio; for activity, negative = inhibition: % is set by controls: 0 for no effect and ±100 for the full control effect); conditions: ER-beta-UAS-bla HEK293T, beta-lactamase FRET ratio, 16 h; activity, negative = inhibition: at 92.4 µM (top of the series) unless noted
In short: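 ER-beta-UAS-bla HEK293T (GripTite) cells in 2% charcoal-stripped FBS medium were preincubated 6 hr at 37C, dosed with compound, then stimulated with 1 nM E2 (final) for 16 hr; beta-lactamase reporter read by B/G FRET fluorescence after 2 hr substrate loading.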

[3] = target: Progesterone receptor (Homo sapiens) (UniProt P06401); assay: qHTS assay to identify small molecule agonists of the progesterone receptor (PR) signaling pathway (AID 1346784); conditions: PR-UAS-bla HEK293T, beta-lactamase FRET ratio, 16 h; activation: at 92.4 µM (top of the series) unless noted; note: nearly all actives have a fitted effect of over 30% in size
In short: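 Agonist qHTS: compounds pinned onto 3,000 PR-UAS-bla HEK 293T cells per well in charcoal-stripped serum medium, 16hr at 37C, then beta-lactamase activity measured by LiveBLAzer FRET fluorescence after 2 hours at room temperature.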

[4] = target: Progesterone receptor (Homo sapiens) (UniProt P06401); assay: qHTS assay to identify small molecule antagonists of the progesterone receptor (PR) signaling pathway (AID 1346795; active = well fitted inhibition curve with a large enough effect in the signal ratio in the repeat runs, not every such curve was filed as active; inconclusive = weak or mixed curves; the % refers to the signal ratio; for activity change, negative = inhibition: % is set by controls: 0 for no effect and ±100 for the full control effect); conditions: PR-UAS-bla HEK293T, beta-lactamase FRET ratio, 16 h; activity change, negative = inhibition: at 92.4 µM (top of the series) unless noted
In short: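 Antagonist mode with agonist R5020 at 1 nM final and 16 hr incubation at 37C. Reporter was beta-lactamase driven by UAS in HEK293T (PR-UAS-bla), 2% charcoal-stripped serum; signal from LiveBLAzer FRET substrate, 2 hr at room temperature.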

[5] = qHTS assay to identify small molecule antagonists of the progesterone receptor (PR) signaling pathway - cell viability counter screen (AID 1346798; active = well fitted curve in the direction sought with a large enough effect in the repeat runs; inconclusive = weak or mixed curves; inactive = no such curve, though single readings can be large; an effect the other way counts as inactive or inconclusive; note: nearly all actives have a fitted effect of over 50% in size)
In short: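 Cytotoxicity read as CellTiter-Glo luminescence (30 min, room temperature) in the same wells as the beta-lactamase readout. HEK293T PR-UAS-bla cells in charcoal-stripped 2% FBS received compound and R5020, then 16 h at 37C, 5% CO2.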

[6] = qHTS assay to identify small molecule agonists of the progesterone receptor (PR) signaling pathway - cell viability counter screen (AID 1346799); note: nearly all actives have a fitted effect of over 45% in size
In short: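 Cytotoxicity measured by CellTiter-Glo luminescence (30 min, RT) in the same wells as the PR beta-lactamase agonist read. Those HEK293T cells had 16 h compound treatment at 37 C in 2% charcoal-stripped FBS medium.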

[7] = target: Thyrotropin receptor (Homo sapiens) (UniProt P16473); assay: qHTS assay to identify small molecule antagonists of the thyroid stimulating hormone receptor (TSHR) signaling pathway (AID 1259385); conditions: TSHR-HEK293 cAMP HTRF, TSH-stimulated antagonist mode; activity change, negative = inhibition: at 92.4 µM (top of the series) unless noted; note: nearly all actives have a fitted effect of over 20% in size
In short: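 TSHR-HEK293 cells were plated and held 18 h at 37C/5% CO2, then given compound plus Ro20-1724 and stimulated with TSH at 1.5 ng/mL final. After 30 min at room temperature, cAMP was detected with cAMP-d2/anti-cAMP-cryptate (1 h) by fluorescence.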

[8] = qHTS assay to identify small molecule agonists of the TGF-beta/Smad signaling pathway - cell viability counter screen (AID 1346829; active = well fitted curve in the direction sought with a large enough effect in the repeat runs; inconclusive = weak or mixed curves; inactive = no such curve, though single readings can be large; an effect the other way counts as inactive or inconclusive; note: nearly all actives have a fitted effect of over 45% in size)
In short: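 Compound-treated SBE-bla HEK 293T cells (5 hr, 37 C) were assessed for viability with CellTiter-Glo in parallel with the reporter read.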

[9] = qHTS assay to identify small molecule agonists of the TGF-beta/Smad signaling pathway (AID 1346859; active = well fitted activation curve with a large enough effect in the signal ratio in the repeat runs, not every such curve was filed as active; inconclusive = weak or mixed curves; the % refers to the signal ratio); conditions: SBE-bla HEK293T, TGF-beta/Smad beta-lactamase reporter, 5 h; activation: at 76.8 µM (top of the series) unless noted
In short: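 Fluorescence (ex 405 nm; em 460 and 530 nm) was read 2 h after LiveBLAzer FRET substrate at RT. The preceding compound treatment of overnight-plated SBE-bla HEK293T cells lasted 5 h at 37 C.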

[10] = qHTS assay to identify small molecule antagonists of the TGF-beta/Smad signaling pathway (AID 1346924; active = well fitted inhibition curve with a large enough effect in the signal ratio in the repeat runs, not every such curve was filed as active; inconclusive = weak or mixed curves; the % refers to the signal ratio); conditions: SBE-bla HEK293T, TGF-beta/Smad reporter, beta-lactamase ratio; activity, negative = inhibition: at 76.8 µM (top of the series) unless noted
In short: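 SBE-bla HEK 293T cells were plated overnight, then received compound in DMSO plus TGF-beta1 (added as a 0.25 ng/mL solution) and were incubated 5 h at 37 C. Beta-lactamase reporter activity was read after 2 h at room temperature with LiveBLAzer B/G FRET substrate (ex 405, em 460/530 nm).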

[11] = qHTS assay to identify small molecule antagonists of the estrogen receptor beta (ER-beta) signaling pathway - cell viability counter screen (AID 1259382; active = well fitted curve in the direction sought with a large enough effect in the repeat runs; inconclusive = weak or mixed curves; inactive = no such curve, though single readings can be large; an effect the other way counts as inactive or inconclusive; note: nearly all actives have a fitted effect of over 55% in size)
In short: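 Cells: ER-beta-UAS-bla HEK293T, 2,000/well, 2% CS-FBS, 6 hr settle. Cpd + E2 (1nM final), 16 hr, 37C/5% CO2. Bla FRET substrate 2 hr RT, then CellTiter-Glo 30 min RT, luminescence.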

[12] = qHTS assay to identify small molecule antagonists of the TGF-beta/Smad signaling pathway - cell viability counter screen (AID 1346824; active = well fitted curve in the direction sought with a large enough effect in the repeat runs; inconclusive = weak or mixed curves; inactive = no such curve, though single readings can be large; an effect the other way counts as inactive or inconclusive; note: nearly all actives have a fitted effect of over 50% in size)
In short: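 SBE-bla HEK 293T cells were plated overnight at 37 C, then given compounds in DMSO plus TGF-beta1 (added as 0.25 ng/mL solution) for 5 hr. After the bla read, CellTiter-Glo was added to the same wells and luminescence read after 30 min at room temperature.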
Potency is the fitted concentration of half-maximal effect; tags give direction and shape of the fitted curve or compound fluorescence and quenching.

Sequence of UniProt P06401 (P06401 whole entry, looked up): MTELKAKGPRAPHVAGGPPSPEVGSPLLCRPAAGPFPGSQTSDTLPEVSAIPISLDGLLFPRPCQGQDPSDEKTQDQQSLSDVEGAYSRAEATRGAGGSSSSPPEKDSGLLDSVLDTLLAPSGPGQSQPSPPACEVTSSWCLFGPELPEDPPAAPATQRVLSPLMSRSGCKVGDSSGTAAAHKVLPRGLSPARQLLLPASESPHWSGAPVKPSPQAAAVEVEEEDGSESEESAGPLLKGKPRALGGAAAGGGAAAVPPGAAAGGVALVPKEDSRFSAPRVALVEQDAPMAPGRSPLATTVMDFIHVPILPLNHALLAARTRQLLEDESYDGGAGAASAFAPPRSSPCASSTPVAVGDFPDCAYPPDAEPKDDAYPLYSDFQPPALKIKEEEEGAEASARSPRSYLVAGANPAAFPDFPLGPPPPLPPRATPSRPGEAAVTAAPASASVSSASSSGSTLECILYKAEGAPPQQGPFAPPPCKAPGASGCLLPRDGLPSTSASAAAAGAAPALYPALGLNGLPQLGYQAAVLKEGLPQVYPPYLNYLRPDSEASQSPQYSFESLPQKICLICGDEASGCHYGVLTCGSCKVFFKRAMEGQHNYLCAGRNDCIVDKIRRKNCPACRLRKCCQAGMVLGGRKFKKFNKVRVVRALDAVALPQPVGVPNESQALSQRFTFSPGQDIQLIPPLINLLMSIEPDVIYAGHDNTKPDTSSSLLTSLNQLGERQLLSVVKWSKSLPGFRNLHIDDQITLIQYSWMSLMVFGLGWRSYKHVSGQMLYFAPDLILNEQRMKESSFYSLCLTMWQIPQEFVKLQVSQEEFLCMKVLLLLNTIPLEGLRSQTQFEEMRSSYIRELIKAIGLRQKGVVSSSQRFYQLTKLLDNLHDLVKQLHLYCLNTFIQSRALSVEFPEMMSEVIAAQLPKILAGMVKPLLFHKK
Sequence of UniProt P16473 (P16473 whole entry, looked up): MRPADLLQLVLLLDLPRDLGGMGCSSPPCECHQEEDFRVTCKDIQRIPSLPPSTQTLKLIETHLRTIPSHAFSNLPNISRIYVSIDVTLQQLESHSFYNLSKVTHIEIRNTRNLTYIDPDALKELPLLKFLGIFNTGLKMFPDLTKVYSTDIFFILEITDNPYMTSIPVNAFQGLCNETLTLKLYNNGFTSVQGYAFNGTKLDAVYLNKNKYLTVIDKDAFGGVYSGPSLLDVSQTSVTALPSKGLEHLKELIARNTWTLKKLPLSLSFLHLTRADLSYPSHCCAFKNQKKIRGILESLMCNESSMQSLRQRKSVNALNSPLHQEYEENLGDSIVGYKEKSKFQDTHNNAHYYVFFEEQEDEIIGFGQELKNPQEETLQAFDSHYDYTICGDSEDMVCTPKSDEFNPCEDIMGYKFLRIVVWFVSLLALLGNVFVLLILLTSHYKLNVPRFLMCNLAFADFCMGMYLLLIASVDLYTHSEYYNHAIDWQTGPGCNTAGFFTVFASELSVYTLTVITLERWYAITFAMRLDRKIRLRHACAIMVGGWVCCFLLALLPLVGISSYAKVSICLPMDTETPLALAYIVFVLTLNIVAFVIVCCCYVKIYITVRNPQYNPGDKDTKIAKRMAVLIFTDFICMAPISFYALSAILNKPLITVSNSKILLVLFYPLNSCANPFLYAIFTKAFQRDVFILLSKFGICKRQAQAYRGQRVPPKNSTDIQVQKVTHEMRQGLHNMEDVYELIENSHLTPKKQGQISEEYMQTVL
Sequence of UniProt Q92731 (Q92731 whole entry, looked up): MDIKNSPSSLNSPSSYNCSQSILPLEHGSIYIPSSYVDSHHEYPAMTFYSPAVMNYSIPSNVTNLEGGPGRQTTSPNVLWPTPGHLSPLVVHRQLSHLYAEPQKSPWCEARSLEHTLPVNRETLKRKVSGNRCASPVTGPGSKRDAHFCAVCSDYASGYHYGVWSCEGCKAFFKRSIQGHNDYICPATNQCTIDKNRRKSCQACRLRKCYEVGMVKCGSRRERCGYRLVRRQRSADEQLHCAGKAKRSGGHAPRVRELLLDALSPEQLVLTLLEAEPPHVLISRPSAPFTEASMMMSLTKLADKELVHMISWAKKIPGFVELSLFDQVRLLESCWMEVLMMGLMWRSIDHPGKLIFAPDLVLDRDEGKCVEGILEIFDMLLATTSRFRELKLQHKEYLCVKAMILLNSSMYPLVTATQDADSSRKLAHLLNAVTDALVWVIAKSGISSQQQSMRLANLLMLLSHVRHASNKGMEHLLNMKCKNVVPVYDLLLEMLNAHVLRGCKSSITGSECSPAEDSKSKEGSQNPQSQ

What does the source list for O=C(O)O?
Potency [1]: inconclusive: 2.96 µM [activator, partial curve, poor fit]; activity, negative = inhibition [2]: inactive: 1.94% [at 8.39 µM]; Potency [3]: active: 0.373 µM; activity change, negative = inhibition [4]: inconclusive: -36% [at 8.39 µM]; Potency [5]: inconclusive: 4.19 µM [cytotoxic, single point]; Potency [6]: inconclusive: 2.96 µM [cytotoxic, single point]

With Cc1[nH]nc2c1N=C(c1ccccc1Cl)c1cc([N+](=O)[O-])ccc1N2 as the compound, how does the Potency [1] read?
Its Potency is inconclusive: 68.6 µM [cytotoxic, single point].

And the Potency [2]?
Its Potency is inconclusive: 68.6 µM [cytotoxic, single point].

And the Potency [7]?
Its Potency is inconclusive: 43.3 µM [falling, partial curve, poor fit].

And the Potency [3]?
Its Potency is inconclusive: 9.69 µM [cytotoxic, partial curve].

And the Potency [4]?
The Potency was inconclusive: 61.1 µM [falling, partial curve].

And the Potency [5]?
Its Potency is inconclusive: 0.172 µM [rising, full curve].

What about the Potency [6] of the same compound?
Its Potency is inconclusive: 54.5 µM [cytotoxic, partial curve, poor fit].

What about the Potency [8] of the same compound?
Its Potency is active: 4.36 µM.

And the Potency [9]?
Its Potency is inconclusive: 27.5 µM [falling, partial curve, poor fit].

What about the Potency [10] of the same compound?
Its Potency is inconclusive: 38.9 µM [cytotoxic, partial curve].

What does the source list for NC(N)=NN=C(/C=C/c1ccc([N+](=O)[O-])o1)/C=C/c1ccc([N+](=O)[O-])o1?
Potency [1]: inconclusive: 29.8 µM [cytotoxic, single point]; Potency [2]: inconclusive: 5.96 µM [rising, full curve]; Potency [7]: inconclusive: 18.8 µM [falling, partial curve]; Potency [3]: inconclusive: 26.6 µM [cytotoxic, partial curve]; Potency [4]: inconclusive: 33.5 µM [falling, single point]; Potency [5]: active: 23.7 µM; Potency [6]: active: 23.7 µM

For Cc1ccc(Nc2c(F)cccc2Cl)c(CC(=O)O)c1, which Potency [1] is on record?
The Potency was inconclusive: 26.6 µM [rising, partial curve, poor fit].

What about the activity, negative = inhibition [2] of the same compound?
The activity, negative = inhibition was inconclusive: -42.1% [at 42.5 µM].

What about the Potency [11] of the same compound?
Its Potency is inconclusive: 23.7 µM [cytotoxic, partial curve].

And the Potency [4]?
Its Potency is inconclusive: 26.6 µM [rising, partial curve, poor fit].

What about the Potency [5] of the same compound?
The Potency was inconclusive: 13.3 µM [cytotoxic, partial curve].

What about the Potency [6] of the same compound?
The Potency was inconclusive: 13.3 µM [cytotoxic, single point].

With CNC(=S)NN as the compound, how does the Potency [1] read?
The Potency was inconclusive: 24.3 µM [rising, full curve].

What about the Potency [2] of the same compound?
The Potency was inconclusive: 19.3 µM [rising, full curve].

And the Potency [11]?
The Potency was inconclusive: 13.7 µM [cytotoxic, full curve].

And the Potency [3]?
The Potency was inconclusive: 12.2 µM [cytotoxic, full curve].

And the Potency [4]?
Its Potency is active: 8.63 µM.

What about the Potency [5] of the same compound?
Its Potency is active: 13.7 µM.

What about the Potency [6] of the same compound?
Its Potency is inconclusive: 12.2 µM [cytotoxic, full curve].

What about the activity, negative = inhibition [10] of the same compound?
The activity, negative = inhibition was inconclusive: 5.91%.

For CCOc1ccc2[nH]cc(C(=O)NCc3ccccc3)c(=O)c2n1, which Potency [1] is on record?
Its Potency is inconclusive: 68.6 µM [rising, partial curve, poor fit].

And the activity, negative = inhibition [2]?
Its activity, negative = inhibition is inconclusive: -23.9%.

What about the Potency [5] of the same compound?
Its Potency is inconclusive: 21.7 µM [rising, partial curve].

And the Potency [6]?
Its Potency is inconclusive: 17.2 µM [rising, full curve].

Which results are given for O=C(O)c1cccc(-c2noc(-c3ccccc3F)n2)c1?
Potency [1]: inconclusive: 9.44 µM [rising, full curve]; Potency [2]: inconclusive: 18.8 µM [fluorescent, partial curve]; Potency [11]: inconclusive: 21.1 µM [cytotoxic, partial curve]; Potency [5]: inconclusive: 29.8 µM [cytotoxic, partial curve]; Potency [6]: inconclusive: 5.96 µM [cytotoxic, full curve]; Potency [12]: inconclusive: 16.9 µM [cytotoxic]; Potency [8]: inconclusive: 12 µM [cytotoxic, partial curve]; Potency [9]: inconclusive: 19 µM [rising, partial curve]; Potency [10]: inconclusive: 9.52 µM [fluorescent, partial curve]

For COc1ccc(C(=O)c2ccccc2)c(O)c1, which Potency [1] is on record?
The Potency was “inactive”.

What about the activity, negative = inhibition [2] of the same compound?
Its activity, negative = inhibition is inconclusive: -4.28%.

What about the Potency [7] of the same compound?
The Potency was inconclusive: 75.7 µM [falling, partial curve, poor fit] and inconclusive: 23.7 µM [falling, partial curve, poor fit].

What about the Potency [4] of the same compound?
The Potency was active: 30.1 µM and inconclusive: 61.1 µM.

And the activity change, negative = inhibition [4]?
The activity change, negative = inhibition was inconclusive: -39.7% [at 42.5 µM].

What about the Potency [5] of the same compound?
Its Potency is “inactive”.

What about the Potency [6] of the same compound?
The Potency was “inactive”.

And the Potency [9]?
Its Potency is inconclusive: 27.5 µM [rising, partial curve].

Which Potency [1] does the source give for CCN(Cc1c(F)cccc1Cl)c1c([N+](=O)[O-])cc(C(F)(F)F)cc1[N+](=O)[O-] here?
Its Potency is inconclusive: 54.5 µM [rising, partial curve].

What about the Potency [2] of the same compound?
The Potency was inconclusive: 27.3 µM [rising, partial curve].

What about the Potency [11] of the same compound?
Its Potency is active: 43.3 µM.

And the Potency [4]?
Its Potency is inconclusive: 27.3 µM [rising, partial curve].

And the Potency [5]?
The Potency was active: 21.7 µM.

And the Potency [6]?
Its Potency is active: 8.63 µM.

And the activity, negative = inhibition [10]?
Its activity, negative = inhibition is inconclusive: -22.8%.

For CC(C)(C)c1cc(Cc2cc(C(C)(C)C)c(O)c(C(C)(C)C)c2)cc(C(C)(C)C)c1O, which Potency [1] is on record?
Its Potency is inconclusive: 68.6 µM [activator, partial curve, poor fit].

And the Potency [2]?
Its Potency is “inactive”.

What about the Potency [3] of the same compound?
The Potency was inconclusive: 13.7 µM [falling, single point].
